# ± gives the standard deviation of the averaged measurements. This is one part of the list.
# Tested on: PfAP2-G AP2 domain (GST-tagged)
# Test: gcPBM binding intensity (ln(normalized median fluorescence intensity)); higher = stronger DNA binding
# In short: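 In this array assay, P. falciparum DNA-binding domains with a GST tag, expressed in E. coli, were applied for 1 h to primer-extended double-stranded 36-bp intergenic genomic probes and negative controls on an Agilent 4 × 180k array. Bound protein was visualised with Alexa488 anti-GST antibody at 488 nm. Binding intensity is the highest Masliner-normalised natural-log median intensity across replicate spots of either probe orientation.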
row,Sequence,gcPBM binding intensity (ln)
1,CTCTTGTCATTTTGCACACACACATGTATAGGTTAT [CACACA_site3057],10.5 ± 0.24
2,ATGTAGGTTAATTATTGTACGTAGGGGGTGTATATT [XGTACX_site3973],11.8 ± 1.2
3,TTCAGAGAATAAAAATGTACATATAATATTTTAAAA [XGTACX_site577],11.2 ± 0.65
4,TTTCTAATTTATATCACACACATATATTTATAGTAA [CACACA_site6280],9.96 ± 0.24
5,GTTTACTAATATTGCACACGAATATGAAAAAGAGAA [CACACA_site2897],10.2 ± 0.25
6,GTGTTAACTATTATGAGTACTTATGTATTAATTCAT [XGTACX_site7767],11.4 ± 0.88
7,TTGCTTATTAAATGGGGTACATTATATATATATATA [XGTACX_site2515],11.6 ± 0.84
8,TATAATAAAATATGTACACACATACAGACATATATA [CACACA_site6693],11.5 ± 1
9,ATATATATATAATGTGTACACACATATGTATTTATA [CACACA_site8170],11.7 ± 0.67
10,TAATTAAGATGATAAAAATTGAAAAAACAATTTTAA [CACACA_negctrl_site658],9.445 ± 0.049
11,ATAATATCTTCTTTTTTTTTTTTTTTTTTTTTTTTT [CACACA_negctrl_site1005],10.9 ± 0.56
12,AAATGATGCATTTGTCATTAAAATTGTGAAATATTA [CACACA_negctrl_site231],9.66 ± 0.28
13,AAAAAAAAAAAAAAAAGTACATATATATATAATTAT [XGTACX_site7836],11.7 ± 0.89
14,AGAGTATATAAAGTAACACACAATAAAATAAAATAA [CACACA_site2328],9.925 ± 0.007
15,CATATAGTATAAATTTGTACATAAATATATATATAT [XGTACX_site7477],10.9 ± 0.49
16,TTTAAAAACAAATATTGTACAAATTAAAATATATCA [XGTACX_site7220],10.8 ± 0.43
17,AGAGCATAATAAAACACACACATACATACAGATATA [CACACA_site4671],9.86 ± 0.11
18,CACTAATATATATACAGTACATAATAAAGTATATAA [XGTACX_site6875],10.8 ± 0.53
19,TGATGATATAAAAACACACACATATAATATAATACT [CACACA_site1208],9.92 ± 0.042

row,Sequence,gcPBM binding intensity (ln)
1,TACATACACGGACACACACACATATATATATATATA [CACACA_site5883],11.3 ± 0.88
2,TAATTTTATATTAAAAGTACATAATAAAAACTATAA [XGTACX_site8779],11.3 ± 0.94
3,AAGAAATATATATATATATATATATATATATATGTA [TGCATGCA_negctrl_site442],9.67 ± 0.16
4,AAAAAAAAAAAACATACACACAAATATATACATACA [CACACA_site4011],9.79 ± 0.085
5,CTGTTTTACTTTAGTAGTACAATAAAAATATAAAAA [XGTACX_site2934],11.5 ± 1.1
6,TATTACCCATATTATACACACATATATTATATATAT [CACACA_site1567],10.3 ± 0.2
7,ATTAAATATGAGGGAACACACACATGATATATAAAT [CACACA_site8755],10.05 ± 0.078
8,TTATATAAAGAATGTACACACAGAAATGCACCCACA [CACACA_site2282],11.5 ± 0.81
9,ATGTATAAACAAAAGGGTACATATATATATATATAT [XGTACX_site2087],11.1 ± 0.81
10,AGAAAAATTACAAAATGTACATAATGTGTTATTAAT [XGTACX_site7877],10.9 ± 0.47
11,ATTAAGTACTAAAAAGTGCAGTTCGGTACTGTGCTT [GTGCAC_site9755],11 ± 0.63
12,AATAAAAAACATGAAAGTACTTTAAAAAAGGTAATA [XGTACX_site1897],11.1 ± 0.35
13,AAGTACATACATAAAACACACACATATATATATATA [CACACA_site8541],10.5 ± 0.35
14,AATATATAAATCAATAGTACATATATATATATATAT [XGTACX_site3898],10.7 ± 0.53
15,AAAATTAAATAAAAATGTACAGAAATATTATATGAA [XGTACX_site5695],11 ± 0.57
16,ATATATTATATTAATTGTACATAAAAAAGAGAAAAA [XGTACX_site3366],11.1 ± 0.61
17,TTATATTTATAAAGGTGTACCTTAAAATGATTTTAC [XGTACX_site3774],11.4 ± 0.88
18,CCAAAAAATATATGTAGTACTACATTATTAAATATG [XGTACX_site5128],11.6 ± 0.83
19,AAATTCAATTTGCGCTGTACATGAAGATATAAATTT [XGTACX_site4844],10.9 ± 0.38

row,Sequence,gcPBM binding intensity (ln)
1,ATACCTGTTGTGTTACGTACATAATTTTAATGTTTG [XGTACX_site8181],11.5 ± 0.59
2,TATAATATATTCACTCGTACATATTTAATAATATCT [XGTACX_site6209],10.9 ± 0.52
3,ACAGTATATTAAAAAATACACACGTATTATATCTAC [CACACA_site2640],10.3 ± 0.26
4,AAAAAAAACACGCGCACACACACACCCACAGACACA [CACACA_site5253],10.7 ± 0.39
5,TATATATATAAATACACACACACACCCCAAAGCGTA [CACACA_site4211],10.4 ± 0.42
6,TATTTTTTAAAAAATTATAAATAAAATTATATTACG [CACACA_negctrl_site324],9.71 ± 0.099
7,TATATATATATAATATGTACATATATTAAGCATTTT [XGTACX_site4470],11.1 ± 0.61
8,AAAAAAAAAAATTAAAGTACTAATTAAAATTATATG [XGTACX_site5289],10.9 ± 0.62
9,TATTACACATATTATGTGCACATATATAATCAATAT,10.5 ± 0.27
10,ATTTTATTTTTGTGCACACTGATAAATTGAAAAGAG [CACACA_site2948],10.8 ± 0.57
11,TTTTAATTAAATAAATGTACTCATTCTATTATTTAT [XGTACX_site3032],11.3 ± 0.75
12,ATAAATTTTTTATGAACACACAAATACCCACGCTCA [CACACA_site2659],10.7 ± 0.4
13,ATATTCTGATTTTAGATGCACTTCGTTAACAAAATA [GTGCAC_site9958],10.05 ± 0.078
14,ATATATATATTTATATGTACATAATATAAAATTTCT [XGTACX_site3720],11.2 ± 0.76
15,TATATAATATTCTACACACCAACAACAAACATATAT [CACACA_site567],10.3 ± 0.17
16,TATCATATATTATATGCACACATGTTTTTCAAGAAT [CACACA_site1892],10.1 ± 0.2
17,TTATATATATGTGTATGTACATATATATATATATAT [XGTACX_site1141],11.1 ± 0.62
18,AAACGTAACATATATATATATATATATAAGATATAT [CACACA_negctrl_site126],9.6 ± 0.16
19,ATATTTGTATAAATTGCACACTTTATTTTTTTTAAG [CACACA_site1558],9.99 ± 0.014

# Reference: the supplement of paper PMC11417369
